Variants at the floor of the assay are shown more often than the library holds them.
B1: TPR 5TU (parent)
chain: GGAUCUUCUCGAUCUAACAAAAAAGACAAAUCUGCCACAAAGCUUGAGAGCAUCUUCGGAUGCAGAGGCGGCAGCCUUCGGUGGCGCGAUAGCGCCAACGUUCUCAACUAUGACACGCAAAACGCGUGCUCCGUUGAAUGGAGUUUAUCAUG

Variants of: B1
Assay: polymerase ribozyme fitness, log enrichment relative to wild type (log ratio); higher = more active; in vitro selection for triplet polymerase activity
In short: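 Fitness compares each genotype's enrichment to that of the wild type on a logarithmic scale, averaging replicates with inverse-variance weights. The logarithm is base 2. Enrichment came from Illumina sequencing of input and output libraries after one triplicate round of in vitro selection, which included frozen incubation at −7 °C, of PCR-built, transcribed mutant libraries of each subunit of a heterodimeric triplet polymerase ribozyme. Only genotypes with ≥10 input reads and ≥1 read per output were kept.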

Variant | polymerase ribozyme fitness (log ratio)
GGAUCUUCUCGAUCUAACAAAAAAGACAAAUCUGCCACAAAGCUUGAGAGCAUCUUCGGAUGCAGAGGCGGCAGCCUUCGGUGUCGCGAUAGCGCUAACAUUCUCAGCUAUGACACGCAAAACGCGUGCUCCGUUGAAUGGAGUUUAUCAUG [G84U C96U G100A A107G] | ≤ -4.2
GGAUCUUCUCGAUCUAACAAAAAAGACAAAUCUGCCACAAAGCUUGAGAGCAUCUUCGGAUGCAGAGGCGGCAGCCUUCGGUGGAGCGAUAGCGCCAACGUUCUCAACUAUGACACGCAAAACGCGUGCUCCGUUUAAUGGAGUUUAUCAUG [C85A G136U] | ≤ -4.2
GGAUCUUCUCGAUCUAACAAAAAAGACAAAUCUGCCACAAAGCUUGAGAGCAUCUUCGGAUGCAGAGGCGGCAGCCUUCGGUGGAGCGAUAGCGCCAACGUUCUCAACUAUGACACGCAAAACGCCUGCUCCGUUGAAUGGAGUUUAACAUG [C85A G126C U148A] | -4.13
GGAUCUUCUCGAUCUAACAAAAAAGACAAAUCUGCCACAAAGCUUGAGAGCAUCUUCGGAUGCAGAGGCGGCAGCCUUCGGUGUCGCGAUAGCGCCAACGGUCUCACCUAUGACACGCAAAACGCGUGCUCCGUUAAAUGGAGUUUAUCAUG [G84U U101G A107C G136A] | ≤ -4.2
GGAUCUUCUCGAUCUAACAAAAAAGACAAAUCUGCCACAAAGCUUGAGAGCAUCUUCGGAUGCAGAGGCGGCAGCCUUCGGUGGAGCGGUAGCGCCAACGUUCUCAACUAUGACACGCAAAACGCGUGCUCCGUUGAAUGGAGUUCAUCAUG [C85A A89G U146C] | -2.83
GGAUCUUCUCGAUCUAACAAAAAAGACAAAUCUGCCACAAAGCUUGAGAGCAUCUUCGGAUGCAGAGGCGGCAGCCUUCGGUGGAGCGAUAGCGCCAAGGUUCUCAACUAUGACACGCAAAACGCGUGCUCCGUUGAAGGGAGUUGAUCAUG [C85A C99G U139G U146G] | ≤ -4.2
GGAUCUUCUCGAUCUAACAAAAAAGACAAAUCUGCCACAAAGCUUGAGAGCAUCUUCGGAUGCAGAGGCGGCAGCCUUCGGUGUCGCGAUAGCGCCAAGGUUCUCAACUAUGACACGCAAAACGCGUGCUCCGUUGAAUGGAGUUUAACAUG [G84U C99G U148A] | ≤ -4.2
GGAUCUUCUCGAUCUAACAAAAAAGACAAAUCUGCCACAAAGCUUGAGAGCAUCUUCGGAUGCAGAGGCGGCAGCCUUCGGUGGAGCGAUCGCGCCAACGUUCUCAACUAUGACACGCAAAACGCGUGCUCCGUUGAAUGGAGUUUGUCAUG [C85A A91C A147G] | ≤ -4.2
GGAUCUUCUCGAUCUAACAAAAAAGACAAAUCUGCCACAAAGCUUGAGAGCAUCUUCGGAUGCAGAGGCGGCAGCCUUCGGUGUCGCGAUACCGCCAACGUUCUCAACUAUGACACGCAAUACGCGUGCUCCGUUGAAUGGAGUUUAUCAUG [G84U G92C A121U] | -2.94
GGAUCUUCUCGAUCUAACAAAAAAGACAAAUCUGCCACAAAGCUUGAGAGCAUCUUCGGAUGCAGAGGCGGCAGCCUUCGGUGGAGCGAUAGCGCCAACGUUCUCAACUAUGACACGCAAAACGUGUGCUCCGUUGAAUGGAGUUUAUCAUG [C85A C125U] | -1.7
GGAUCUUCUCGAUCUAACAAAAAAGACAAAUCUGCCACAAAGCUUGAGAGCAUCUUCGGAUGCAGAGGCGGCAGCCUUCGGUGUCGCAAUAGCGCCAACGUUCUCAACUAUGACACGCACAACGCGUGCUCCGUUGAAUGGAGUUUAUCAUG [G84U G88A A120C] | ≤ -4.2
GGAUCUUCUCGAUCUAACAAAAAAGACAAAUCUGCCACAAAGCUUGAGAGCAUCUUCGGAUGCAGAGGCGGCAGCCUUCGGUGGAGGGAUAGCACCAACGUUCUCAAGUAUGACACGCAAAACGCGUGGUCCGUUGAAUGGAGAUUAUCAUG [C85A C87G G94A C108G C129G U144A] | ≤ -4.2
GGAUCUUCUCGAUCUAACAAAAAAGACAAAUCUGCCACAAAGCUUGAGAGCAUCUUCGGAUGCAGAGGCGGCAGCCUUCGGUGGAGCGAUAGCGCCAACGUUCUCAACUAUGACACGCAAAACGCGUGCUCCGUUGAAUGGCGUUUAUCAUG [C85A A142C] | -3.23
GGAUCUUCUCGAUCUAACAAAAAAGACAAAUCUGCCACAAAGCUUGAGAGCAUCUUCGGAUGCAGAGGCGGCAGCCUUCGGUGGAGCGAUAGCGCUAACGUUCUCAACUAUGACACGCAAAACGCGUACUCCGUUGAAUGGAGUUUAUCAUG [C85A C96U G128A] | -4.19
GGAUCUUCUCGAUCUAACAAAAAAGACAAAUCUGCCACAAAGCUUGAGAGCAUCUUCGGAUGCAGAGGCGGCAGCCUUCGGUGUCGCGAUAGCGCCAACGUUCUCAACUAUGACACGCAAAACGCGUGCUCCCUCGAAUGGAGUUUAUCAUG [G84U G133C U135C] | ≤ -4.2
GGAUCUUCUCGAUCUAACAAAAAAGACAAAUCUGCCACAAAGCUUGAGAGCAUCUUCGGAUGCAGAGGCGGCAGCCUUCGGUGUCGCGAUAGCGCCAACGUUCUCAACUAUGACACGCAAAACGCAUGCUCCGUUGAAUGGAGUUUAUCAUG [G84U G126A] | -1.87
GGAUCUUCUCGAUCUAACAAAAAAGACAAAUCUGCCACAAAGCUUGAGAGCAUCUUCGGAUGCAGAGGCGGCAGCCUUCGGUGUCGCGAUAGCGCCAACGUUCUCAACUAUGACACGCAAAACGCGUGCUCCGUUGAAUAGAGUUUAUCAUG [G84U G140A] | ≤ -4.2
GGAUCUUCUCGAUCUAACAAAAAAGACAAAUCUGCCACAAAGCUUGAGAGCAUCUUCGGAUGCAGAGGCGGCAGCCUUCGGUGUCGCGAUAGCGCCAACGUCCUCAACUAUGACACGCAAAACGCGUGCUCCGUUGAAUGGAGUUUAUGAUG [G84U U102C C149G] | ≤ -4.2
GGAUCUUCUCGAUCUAACAAAAAAGACAAAUCUGCCACAAAGCUUGAGAGCAUCUUCGGAUGCAGAGGCGGCAGCCUUCGGUGGAGCGAUAGCGCCAACGUUCUCAACUAUGACACGCAAAACGCGUGCUCCAUUGAAUGGAGUUUAUCAUG [C85A G133A] | ≤ -4.2

Variant | polymerase ribozyme fitness (log ratio)
GGAUCUUCUCGAUCUAACAAAAAAGACAAAUCUGCCACAAAGCUUGAGAGCAUCUUCGGAUGCAGAGGCGGCAGCCUUCGGUGGAGCGAUUGCGCCAACGUUCUCAAGUAUGACACGCAAAACGCGUGCUCCGUUGAAUGGAGUUUAGCAUG [C85A A91U C108G U148G] | ≤ -4.2
GGAUCUUCUCGAUCUAACAAAAAAGACAAAUCUGCCACAAAGCUUGAGAGCAUCUUCGGAUGCAGAGGCGGCAGCCUUCGGUGGAGCGAUAGCGCCAACGUUCUCAACUAUGACAAGCAAAACGCGUGCUCCGUUGAAUGGAGUUUAUCAUG [C85A C116A] | 0.744
GGAUCUUCUCGAUCUAACAAAAAAGACAAAUCUGCCACAAAGCUUGAGAGCAUCUUCGGAUGCAGAGGCGGCAGCCUUCGGUGUCGCGAUAGCGCCAACGUUCUCAACUAUGACACACAAAACGCGUGCUCCGUUGAAUGGAGUUUAUCAUG [G84U G117A] | -2
GGAUCUUCUCGAUCUAACAAAAAAGACAAAUCUGCCACAAAGCUUGAGAGCAUCUUCGGAUGCAGAGGCGGCAGCCUUCGGUGUCGCGAUAGCGCCAACGUUCUCAACUAUGACACGCAAAACGCGUGAUCCGUUGAAUGGAGUUUAUCAUG [G84U C129A] | ≤ -4.2
GGAUCUUCUCGAUCUAACAAAAAAGACAAAUCUGCCACAAAGCUUGAGAGCAUCUUCGGAUGCAGAGGCGGCAGCCUUCGGUGGAGCGAUAGCGCCAACGUUCUCAACUAUGACACGCAAAACGCGUGCUCCGUUGAAUGGAGUUUAUCAUU [C85A G152U] | -3.5
GGAUCUUCUCGAUCUAACAAAAAAGACAAAUCUGCCACAAAGCUUGAGAGCAUCUUCGGAUGCAGAGGCGGCAGCCUUCGGUGGAGCGAUAGCACCAACGUUCUCAACUAUGACACGCAAAACGCGAGCUCCGUUGAAUGGAGUUUAUCAUG [C85A G94A U127A] | ≤ -4.2
GGAUCUUCUCGAUCUAACAAAAAAGACAAAUCUGCCACAAAGCUUGAGAGCAUCUUCGGAUGCAGAGGCGGCAGCCUUCGGUGUCUGGAUAGCGCCAACGUUCUCAACUAUGACACGCAAAACGCGUGCUCCGUUUAAUGGAGUUUAUCAUG [G84U G86U C87G G136U] | ≤ -4.2
GGAUCUUCUCGAUCUAACAAAAAAGACAAAUCUGCCACAAAGCUUGAGAGCAUCUUCGGAUGCAGAGGCGGCAGCCUUCGGUGGAGCGAUAGCGGCAACGUUCUCAACUAUGACGCGCAAAACGCGUGCUCCGUUGAAUGGAGUUUAUCAUG [C85A C95G A115G] | -3.81
GGAUCUUCUCGAUCUAACAAAAAAGACAAAUCUGCCACAAAGCUUGAGAGCAUCUUCGGAUGCAGAGGCGGCAGCCUUCGGUGGAGCGAUAGCGCCAACGUUCUCAACUAUGACACGCAAAACGCGUGCUCCGUUGUAUGGAGUUUAUCAUG [C85A A137U] | ≤ -4.2
GGAUCUUCUCGAUCUAACAAAAAAGACAAAUCUGCCACAAAGCUUGAGAGCAUCUUCGGAUGCAGAGGCGGCAGCCUUCGGUGGAGCGAUAGCGACAACGUUCUCAACUAUGACACGCAAAACGUGUGCUCCGUUGAAUGGAGUUUAUCAUG [C85A C95A C125U] | -1.39
GGAUCUUCUCGAUCUAACAAAAAAGACAAAUCUGCCACAAAGCUUGAGAGCAUCUUCGGAUGCAGAGGCGGCAGCCUUCGGUGGAGCGAUAGCGCCAACGUUCUCAACUAUGACACGCAUAACGCGUGCUCCGUUGAAUGGAGUUUAUCAUG [C85A A120U] | -1.7
GGAUCUUCUCGAUCUAACAAAAAAGACAAAUCUGCCACAAAGCUUGAGAGCAUCUUCGGAUGCAGAGGCGGCAGCCUUCGGUGGAGCGAUAGCGCCAACGUUCUCAACUAUGACACGAAAAACGCGUGCUCCGUUGAAUGGAGUUUAUCAUG [C85A C118A] | -0.973
GGAUCUUCUCGAUCUAACAAAAAAGACAAAUCUGCCACAAAGCUUGAGAGCAUCUUCGGAUGCAGAGGCGGCAGCCUUCGGUGUCCCGAUAGGGCCAUCGUUCUCAACUAUGACACGCAAAACGCGUGCUCCGUUGAAUGGUGUUUAUCAUG [G84U G86C C93G A98U A142U] | -1.78
GGAUCUUCUCGAUCUAACAAAAAAGACAAAUCUGCCACAAAGCUUGAGAGCAUCUUCGGAUGCAGAGGCGGCAGCCUUCGGUGUCGCGAUAGCGCCAACGUUCUCAACUAUGAGGCGCAAAACGCGUGCUCCGUUGAAUGGAGUUUAUCAUG [G84U C114G A115G] | ≤ -4.2
GGAUCUUCUCGAUCUAACAAAAAAGACAAAUCUGCCACAAAGCUUGAGAGCAUCUUCGGAUGCAGAGGCGGCAGCCUUCGGUGGAGCGAUAGUGCCAACGUUCUCAACUAUGACACGCCAAACGCUAGCUCCGUUGAAUGGAGUUUAUCAUG [C85A C93U A119C G126U U127A] | ≤ -4.2
GGAUCUUCUCGAUCUAACAAAAAAGACAAAUCUGCCACAAAGCUUGAGAGCAUCUUCGGAUGCAGAGGCGGCAGCCUUCGGUGGAGCGAUAGCGCCAACGUUCUCAACUAUGACACGCAAAACGCGUGCUCCGUUGAAUGGAGUUUAUCGUG [C85A A150G] | -2.41
GGAUCUUCUCGAUCUAACAAAAAAGACAAAUCUGCCACAAAGCUUGAGAGCAUCUUCGGAUGCAGAGGCGGCAGCCUUCGGUGGAGCGAUAGCGCUAACGUUCUCAACUAUGACACGCAAAACGCGUGCUCAGUUGAAUGGAGUUUAUCAUG [C85A C96U C132A] | -3.67
GGAUCUUCUCGAUCUAACAAAAAAGACAAAUCUGCCACAAAGCUUGAGAGCAUCUUCGGAUGCAGAGGCGGCAGCCUUCGGUGGAGCGAUGGCGACAUCGUUCUCAACUAGGACACGCAAAACGCGUGCUCCGUUGAAUGGAGUUUAUCAUG [C85A A91G C95A A98U U111G] | ≤ -4.2
GGAUCUUCUCGAUCUAACAAAAAAGACAAAUCUGCCACAAAGCUUGAGAGCAUCUUCGGAUGCAGAGGCGGCAGCCUUCGGUGGAGCGAUAGCGCCAAAGUUCUCAACUAUGACACGCAAAACGCGUGGUCCGGUGAUUGGAGUUUAUCAUG [C85A C99A C129G U134G A138U] | ≤ -4.2
